{
  "source": "the RNAGym collection of RNA variant scans (doi:10.7554/elife.90254)",
  "parents": {"B1": {"name": "OR4K15 (parent)", "chain": "GUUAACGGUCAUAGGCCAUGGAAACUAGGAGCACCAUUUCGCUGCCAGUGAAGAAAUGAACAAAGAAAAUCUGGGCCAGGCAGGCAUCAAAAGAAAUAGUCUUGCGCUCAACCAGAAAGUCUGUAAUCAUUUUAAGGGUA"}},
  "note": "Read counts are not given, so values of variants with three or more changes are uncertain.",
  "data": [
    {"variants_of": "B1", "experiment": "self-cleavage, relative activity (ratio to wild type); higher = more cleavage; in vitro, sequencing; the parent is a self-cleaving ribozyme", "values": [
      {"variant": "U2C A92G U97C", "self-cleavage": 1.3},
      {"variant": "U2C A5G U97A", "self-cleavage": 1.31},
      {"variant": "U2C A22G U57C U130C", "self-cleavage": 0.86},
      {"variant": "U3C A60U A91U", "self-cleavage": 1.55},
      {"variant": "U3C A52U U72C", "self-cleavage": 0.19},
      {"variant": "U3C A33G A117G", "self-cleavage": 1.38},
      {"variant": "U2C A22U A78G", "self-cleavage": 0.28},
      {"variant": "U2C G7U A24G A55G A86G A92U U127C", "self-cleavage": 0.66},
      {"variant": "U2G U72C A118G", "self-cleavage": 0.42},
      {"variant": "U3C A55G A62C", "self-cleavage": 0.61},
      {"variant": "U2C A23G A68U A86U A89G U132C", "self-cleavage": 0.6},
      {"variant": "U2C A66G A67U", "self-cleavage": 1.38},
      {"variant": "U3C A18U A47G A91U U122C", "self-cleavage": 1.78},
      {"variant": "U3C A24G U38A", "self-cleavage": 1.12},
      {"variant": "U2C U19C A24G A60U A82G A95G A98G U132A", "self-cleavage": 0.38},
      {"variant": "U3A U9A A68G U108C U120A", "self-cleavage": 0},
      {"variant": "U2G A11U A22G U103C C109A", "self-cleavage": 0.12},
      {"variant": "U2C A23G U38C A52G A54G", "self-cleavage": 0.86},
      {"variant": "U2C A30G A51G", "self-cleavage": 0.93},
      {"variant": "U2C A27G A47G U49C A55G", "self-cleavage": 0.49},
      {"variant": "U2C A23G G104A A111G", "self-cleavage": 0.09},
      {"variant": "U3A A66G G75A A78U", "self-cleavage": 0.08},
      {"variant": "U3C A18U G29A A63G U87C", "self-cleavage": 0.54},
      {"variant": "U2C A67G U70A", "self-cleavage": 1.26},
      {"variant": "U2C U39A A82G A134G", "self-cleavage": 0.29},
      {"variant": "U2C A62G A67G A86G", "self-cleavage": 0.89},
      {"variant": "U2C A23G A30G", "self-cleavage": 1.87},
      {"variant": "U2C A13U A54G", "self-cleavage": 1.32},
      {"variant": "U2G A11G U39C A63G", "self-cleavage": 0.35},
      {"variant": "U2C A94G A111G", "self-cleavage": 0.02},
      {"variant": "U3C A5G U49C A59G A63G A126G", "self-cleavage": 1.31},
      {"variant": "U2C U43C A94G", "self-cleavage": 1.35},
      {"variant": "U3C A30G A60G U72A U97A U102A", "self-cleavage": 0.11},
      {"variant": "U2C A5U A18G A54G U102G G106A", "self-cleavage": 0.07},
      {"variant": "U2C A33G A56G U108A U127C", "self-cleavage": 0.06},
      {"variant": "U2C A86U A126G", "self-cleavage": 0.37},
      {"variant": "U3A U57A A64G", "self-cleavage": 1.24},
      {"variant": "U2C A22G A96G A129G", "self-cleavage": 0.82},
      {"variant": "U2C A62G A67G U100C", "self-cleavage": 1.55},
      {"variant": "U3C A22G A96G", "self-cleavage": 0.58},
      {"variant": "U2G U102C U103C", "self-cleavage": 0},
      {"variant": "U3A U26C A82U", "self-cleavage": 0.24},
      {"variant": "U2C U19C A86G U103A", "self-cleavage": 0},
      {"variant": "U3A A5G A96G", "self-cleavage": 1.24},
      {"variant": "U3A C112A A118G U131C", "self-cleavage": 0},
      {"variant": "U2C A86G U127A", "self-cleavage": 1.57},
      {"variant": "U2C A111G A117C A125U", "self-cleavage": 0},
      {"variant": "U2C A13U A30G A78U C105U A117G", "self-cleavage": 0.04},
      {"variant": "U2C A22G A54G A110U", "self-cleavage": 1.39},
      {"variant": "U2C U19G A67G", "self-cleavage": 0.87},
      {"variant": "U2A U39A A51G A60G U70C U102C", "self-cleavage": 0.95},
      {"variant": "U2C A18C U70C", "self-cleavage": 0.39},
      {"variant": "U2C U38C U120C", "self-cleavage": 0.22},
      {"variant": "U2C U43C A96G U122A", "self-cleavage": 1.08},
      {"variant": "U2C A56G A92G A110G A126G G138A", "self-cleavage": 0.08},
      {"variant": "U3A A33G G48A", "self-cleavage": 0.88},
      {"variant": "U2C A62G A66G U103C", "self-cleavage": 0.71},
      {"variant": "U2C A11G A89C A140G", "self-cleavage": 0.6},
      {"variant": "U2C U127A U130C", "self-cleavage": 1.47},
      {"variant": "U2C U49C A52G", "self-cleavage": 1.09},
      {"variant": "U2A U49A A95G", "self-cleavage": 0.63},
      {"variant": "U3A A22G U39C A67G U100C", "self-cleavage": 1.05},
      {"variant": "U2C A30G A60G A89G", "self-cleavage": 1.6},
      {"variant": "U2C U9A A24G A33G A114G", "self-cleavage": 0.05},
      {"variant": "U2C A66G U87C", "self-cleavage": 1.83},
      {"variant": "U2C A13G A94G", "self-cleavage": 0.89},
      {"variant": "U2C G8A A94G A117G", "self-cleavage": 0.77},
      {"variant": "U2C A69U A111G G136A", "self-cleavage": 0.04},
      {"variant": "U2C U39C A56G A62G G80A", "self-cleavage": 0.16},
      {"variant": "U2C C42A U103G", "self-cleavage": 0.01},
      {"variant": "U2C U38C A95U", "self-cleavage": 1.02},
      {"variant": "U2C U3C A60G A111G", "self-cleavage": 0.07},
      {"variant": "U2C A13G C16A A59U A116U", "self-cleavage": 0.49},
      {"variant": "U2A U39C A64U A86G A111G", "self-cleavage": 0.21},
      {"variant": "U2C A11G A47U A59U A63C A91G A95G", "self-cleavage": 1.48},
      {"variant": "U2A U39A A96U U102C", "self-cleavage": 1.01},
      {"variant": "U2C A64G A82G", "self-cleavage": 0.86},
      {"variant": "U2C A30G A126G", "self-cleavage": 0.3},
      {"variant": "U2C U102C U132A", "self-cleavage": 1.14},
      {"variant": "U2C U9C U49C G136A", "self-cleavage": 1.1},
      {"variant": "U2C A13U A89G", "self-cleavage": 0.51},
      {"variant": "U3A A4G A54U A67G", "self-cleavage": 0.76},
      {"variant": "U2C A23G A94G", "self-cleavage": 1.04}
    ]}
  ]
}
